# The list shows a part of the results.
# Assays:
# Assay in all cases: glycan array binding signal (z-score within array); higher = stronger binding
# Conditions in all cases: glycan notation: IUPAC condensed, linker removed
# [1] = target: Neu5Ac(a2-3)Gal(b1-3)[Fuc(a1-4)]GlcNAc(b1-3)Gal(b1-4)[Fuc(a1-3)]GlcNAc
# Method in brief: (§1)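 The binding signal is a Z-score computed within each array and averaged over linkers. Arrays of the same protein sequence at different concentrations or buffers were also averaged together. Data originate from 3228 arrays in the Consortium for Functional Glycomics database, kept only where the protein sequence was available.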
# [2] = target: Neu5Ac(a2-3)Gal(b1-3)[Neu5Ac(a2-3)Gal(b1-4)]GlcNAc
# Method in brief: as §1
# [3] = target: Neu5Ac(a2-3)Gal(b1-3)[Neu5Ac(a2-6)]GalNAc
# Method in brief: as §1
# [4] = target: Neu5Ac(a2-3)Gal(b1-4)Glc
# Method in brief: as §1
# [5] = target: Neu5Ac(a2-3)Gal(b1-4)GlcNAc
# Method in brief: as §1
# [6] = target: Neu5Ac(a2-3)Gal(b1-4)GlcNAc(b1-2)Man(a1-3)[GlcNAc(b1-2)Man(b1-4)GlcNAc(b1-2)Man(a1-6)]Man(b1-4)GlcNAc(b1-4)GlcNAc
# Method in brief: as §1
# [7] = target: Neu5Ac(a2-3)Gal(b1-4)GlcNAc(b1-2)Man(a1-3)[Neu5Ac(a2-6)Gal(b1-4)GlcNAc(b1-2)Man(a1-6)]Man(b1-4)GlcNAc(b1-4)GlcNAc
# Method in brief: as §1
# [8] = target: Neu5Ac(a2-3)Gal(b1-4)GlcNAc(b1-3)Gal(b1-3)GlcNAc
# Method in brief: as §1
# [9] = target: Neu5Ac(a2-3)Gal(b1-4)GlcNAc(b1-3)Gal(b1-4)GlcNAc
# Method in brief: as §1
# [10] = target: Neu5Ac(a2-3)Gal(b1-4)GlcNAc(b1-3)Gal(b1-4)GlcNAc(b1-3)Gal(b1-4)GlcNAc
# Method in brief: as §1
# [11] = target: Neu5Ac(a2-3)Gal(b1-4)GlcNAc(b1-3)Gal(b1-4)[Fuc(a1-3)]GlcNAc
# Method in brief: as §1
# [12] = target: Neu5Ac(a2-3)Gal(b1-4)GlcNAc(b1-6)[Gal(b1-3)]GalNAc
# Method in brief: as §1
# [13] = target: Neu5Ac(a2-3)Gal(b1-4)GlcNAc(b1-6)[Neu5Ac(a2-3)Gal(b1-3)]GalNAc
# Method in brief: as §1
# [14] = target: Neu5Ac(a2-3)Gal(b1-4)GlcNAc6S
# Method in brief: as §1
# [15] = target: Neu5Ac(a2-3)Gal(b1-4)[Fuc(a1-3)]GlcNAc
# Method in brief: as §1
# [16] = target: Neu5Ac(a2-3)Gal(b1-4)[Fuc(a1-3)]GlcNAc(b1-3)Gal
# Method in brief: as §1
# [17] = target: Neu5Ac(a2-3)Gal(b1-4)[Fuc(a1-3)]GlcNAc(b1-3)Gal(b1-4)GlcNAc
# Method in brief: as §1
# [18] = target: Neu5Ac(a2-3)Gal(b1-4)[Fuc(a1-3)]GlcNAc(b1-3)Gal(b1-4)[Fuc(a1-3)]GlcNAc(b1-3)Gal(b1-4)[Fuc(a1-3)]GlcNAc
# Method in brief: as §1
# [19] = target: Neu5Ac(a2-3)Gal(b1-4)[Fuc(a1-3)]GlcNAc(b1-6)[Gal(b1-3)]GalNAc
# Method in brief: as §1
# [20] = target: Neu5Ac(a2-3)Gal(b1-4)[Fuc(a1-3)]GlcNAc6S
# Method in brief: as §1
# [21] = target: Neu5Ac(a2-3)Gal6S(b1-4)GlcNAc
# Method in brief: as §1
# [22] = target: Neu5Ac(a2-3)Gal6S(b1-4)[Fuc(a1-3)]GlcNAc
# Method in brief: as §1
# [23] = target: Neu5Ac(a2-3)GalNAc
# Method in brief: as §1
# [24] = target: Neu5Ac(a2-3)GalNAc(b1-4)GlcNAc
# Method in brief: as §1
# [25] = target: Neu5Ac(a2-3)[GalNAc(b1-4)]Gal(b1-4)Glc
# Method in brief: as §1
# [26] = target: Neu5Ac(a2-3)[GalNAc(b1-4)]Gal(b1-4)GlcNAc
# Method in brief: as §1
# [27] = target: Neu5Ac(a2-3)[Neu5Ac(a2-6)]GalNAc
# Method in brief: as §1
# [28] = target: Neu5Ac(a2-6)Gal
# Method in brief: as §1
# [29] = target: Neu5Ac(a2-6)Gal(b1-4)Glc
# Method in brief: as §1
# [30] = target: Neu5Ac(a2-6)Gal(b1-4)GlcNAc
# Method in brief: as §1
# [31] = target: Neu5Ac(a2-6)Gal(b1-4)GlcNAc(b1-2)Man(a1-3)[Gal(b1-4)GlcNAc(b1-2)Man(a1-6)]Man(b1-4)GlcNAc(b1-4)GlcNAc
# Method in brief: as §1
# [32] = target: Neu5Ac(a2-6)Gal(b1-4)GlcNAc(b1-2)Man(a1-3)[GlcNAc(b1-2)Man(a1-6)]Man(b1-4)GlcNAc(b1-4)GlcNAc
# Method in brief: as §1
# [33] = target: Neu5Ac(a2-6)Gal(b1-4)GlcNAc(b1-2)Man(a1-3)[GlcNAc(b1-2)Man(b1-4)GlcNAc(b1-2)Man(a1-6)]Man(b1-4)GlcNAc(b1-4)GlcNAc
# Method in brief: as §1
# [34] = target: Neu5Ac(a2-6)Gal(b1-4)GlcNAc(b1-2)Man(a1-3)[Neu5Ac(a2-6)Gal(b1-4)GlcNAc(b1-2)Man(a1-6)]Man(b1-4)GlcNAc(b1-4)GlcNAc
# Method in brief: as §1
# [35] = target: Neu5Ac(a2-6)Gal(b1-4)GlcNAc(b1-2)Man(a1-6)[Gal(b1-4)GlcNAc(b1-2)Man(a1-3)]Man(b1-4)GlcNAc(b1-4)GlcNAc
# Method in brief: as §1
# [36] = target: Neu5Ac(a2-6)Gal(b1-4)GlcNAc(b1-2)Man(a1-6)[GlcNAc(b1-2)Man(a1-3)]Man(b1-4)GlcNAc(b1-4)GlcNAc
# Method in brief: as §1
# [37] = target: Neu5Ac(a2-6)Gal(b1-4)GlcNAc(b1-3)Gal(b1-4)GlcNAc
# Method in brief: as §1
# [38] = target: Neu5Ac(a2-6)Gal(b1-4)GlcNAc(b1-3)Gal(b1-4)[Fuc(a1-3)]GlcNAc(b1-3)Gal(b1-4)[Fuc(a1-3)]GlcNAc
# Method in brief: as §1
# [39] = target: Neu5Ac(a2-6)Gal(b1-4)GlcNAc6S
# Method in brief: as §1
# [40] = target: Neu5Ac(a2-6)GalNAc
# Method in brief: as §1
# [41] = target: Neu5Ac(a2-6)GalNAc(b1-4)GlcNAc
# Method in brief: as §1
# [42] = target: Neu5Ac(a2-8)Neu5Ac
# Method in brief: as §1
# [43] = target: Neu5Ac(a2-8)Neu5Ac(a2-3)Gal(b1-4)Glc
# Method in brief: as §1
# [44] = target: Neu5Ac(a2-8)Neu5Ac(a2-3)[GalNAc(b1-4)]Gal(b1-4)Glc
# Method in brief: as §1
# [45] = target: Neu5Ac(a2-8)Neu5Ac(a2-8)Neu5Ac
# Method in brief: as §1
# [46] = target: Neu5Ac(a2-8)Neu5Ac(a2-8)Neu5Ac(a2-3)Gal(b1-4)Glc
# Method in brief: as §1
# [47] = target: Neu5Ac(a2-8)Neu5Ac(a2-8)Neu5Ac(a2-3)[GalNAc(b1-4)]Gal(b1-4)Glc
# Method in brief: as §1
# [48] = target: Neu5Ac(a2-8)Neu5Ac(a2-8)Neu5Ac(a2-8)Neu5Ac(a2-3)[GalNAc(b1-4)]Gal(b1-4)Glc
# Method in brief: as §1
# [49] = target: Neu5Ac(b2-6)Gal(b1-4)GlcNAc
# Method in brief: as §1
# [50] = target: Neu5Ac(b2-6)GalNAc
# Method in brief: as §1
# [51] = target: Neu5Ac9Ac(a2-6)Gal(b1-4)GlcNAc
# Method in brief: as §1
# [52] = target: Neu5Gc(a2-3)Gal(b1-3)GlcNAc
# Method in brief: as §1
# [53] = target: Neu5Gc(a2-3)Gal(b1-3)[Fuc(a1-4)]GlcNAc
# Method in brief: as §1
# [54] = target: Neu5Gc(a2-3)Gal(b1-4)Glc
# Method in brief: as §1
# [55] = target: Neu5Gc(a2-3)Gal(b1-4)GlcNAc
# Method in brief: as §1
# [56] = target: Neu5Gc(a2-3)Gal(b1-4)[Fuc(a1-3)]GlcNAc
# Method in brief: as §1
# [57] = target: Neu5Gc(a2-6)Gal(b1-4)GlcNAc
# Method in brief: as §1
# [58] = target: Neu5Gc(a2-6)GalNAc
# Method in brief: as §1
# [59] = target: Neu5Gc(b2-6)Gal(b1-4)GlcNAc
# Method in brief: as §1
binder,measurement,setting,value
MD-2 (Homo sapiens) (protein) MLPFLFFSTLFSSIFTEAQKQYWVCNSSDASISYTYCDKMQYPISINVNPCIELKGSKGLLHIFYIPRRDLKQLYFNLYITVNTMNLPKRKEVICRGSDDDYSFCRALKGETVNTTISFSFKGIKFSKGKYKCVVEAISGSPEEMLFCLEFVILHQPNSN,glycan array binding signal (z-score),[1],-0.308
same,glycan array binding signal (z-score),[2],-0.289
same,glycan array binding signal (z-score),[3],-0.18
same,glycan array binding signal (z-score),[4],-0.127
same,glycan array binding signal (z-score),[5],-0.297
same,glycan array binding signal (z-score),[6],-0.284
same,glycan array binding signal (z-score),[7],-0.394
same,glycan array binding signal (z-score),[8],-0.277
same,glycan array binding signal (z-score),[9],-0.277
same,glycan array binding signal (z-score),[10],-0.321
same,glycan array binding signal (z-score),[11],-0.162
same,glycan array binding signal (z-score),[12],-0.326
same,glycan array binding signal (z-score),[13],-0.253
same,glycan array binding signal (z-score),[14],-0.158
same,glycan array binding signal (z-score),[15],-0.34
same,glycan array binding signal (z-score),[16],-0.504
same,glycan array binding signal (z-score),[17],-0.316
same,glycan array binding signal (z-score),[18],-0.425
same,glycan array binding signal (z-score),[19],-0.243
same,glycan array binding signal (z-score),[20],-0.072
same,glycan array binding signal (z-score),[21],0.033
same,glycan array binding signal (z-score),[22],-0.201
same,glycan array binding signal (z-score),[23],-0.323
same,glycan array binding signal (z-score),[24],-0.402
same,glycan array binding signal (z-score),[25],-0.412
same,glycan array binding signal (z-score),[26],-0.227
same,glycan array binding signal (z-score),[27],-0.41
same,glycan array binding signal (z-score),[28],-0.384
same,glycan array binding signal (z-score),[29],-0.165
same,glycan array binding signal (z-score),[30],-0.261
same,glycan array binding signal (z-score),[31],-0.341
same,glycan array binding signal (z-score),[32],-0.318
same,glycan array binding signal (z-score),[33],-0.331
same,glycan array binding signal (z-score),[34],-0.321
same,glycan array binding signal (z-score),[35],-0.413
same,glycan array binding signal (z-score),[36],-0.338
same,glycan array binding signal (z-score),[37],-0.15
same,glycan array binding signal (z-score),[38],-0.175
same,glycan array binding signal (z-score),[39],-0.067
same,glycan array binding signal (z-score),[40],-0.355
same,glycan array binding signal (z-score),[41],-0.25
same,glycan array binding signal (z-score),[42],0.136
same,glycan array binding signal (z-score),[43],-0.305
same,glycan array binding signal (z-score),[44],-0.35
same,glycan array binding signal (z-score),[45],-0.091
same,glycan array binding signal (z-score),[46],-0.369
same,glycan array binding signal (z-score),[47],-0.18
same,glycan array binding signal (z-score),[48],-0.309
same,glycan array binding signal (z-score),[49],-0.288
same,glycan array binding signal (z-score),[50],-0.296
same,glycan array binding signal (z-score),[51],-0.419
same,glycan array binding signal (z-score),[52],-0.324
same,glycan array binding signal (z-score),[53],-0.393
same,glycan array binding signal (z-score),[54],-0.167
same,glycan array binding signal (z-score),[55],-0.291
same,glycan array binding signal (z-score),[56],-0.264
same,glycan array binding signal (z-score),[57],-0.388
same,glycan array binding signal (z-score),[58],-0.345
same,glycan array binding signal (z-score),[59],-0.381

# — the supplement of paper PMC8728848
